This is one part of the list. Repeats are few or missing, and single values can be far off.
What was measured:
Experiment in all cases: proliferation Z-score within cell line (SRB, relative to all inhibitors screened on that line); triple-negative breast cancer lines and a kinase inhibitor library; SRB is the sulforhodamine B protein stain; higher = less growth inhibition (more resistant)
Conditions in all cases: concentration: 1 µM; 4 days
Bt20 = tested on: Bt20
Bt549 = tested on: Bt549
HCC1143 = tested on: HCC1143
HCC1806 = tested on: HCC1806
HCC1937 = tested on: HCC1937
HCC38 = tested on: HCC38
HCC70 = tested on: HCC70
Hs578T = tested on: Hs578T
MDA-MB-231 = tested on: MDA-MB-231
MDA-MB-435s = tested on: MDA-MB-435s
MDA-MB-436 = tested on: MDA-MB-436
MDA-MB-453 = tested on: MDA-MB-453
MDA-MB-468 = tested on: MDA-MB-468
SKBR7 = tested on: SKBR7
SUM1315MO2 = tested on: SUM1315MO2
SUM149PT = tested on: SUM149PT
SUM159PT = tested on: SUM159PT
SUM185PE = tested on: SUM185PE
SUM229PE = tested on: SUM229PE
SUM52PE = tested on: SUM52PE
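Further: Single-dose primary screen of a 378-member kinase inhibitor library in 96-well plates, with growth read as absorbance of protein-bound SRB dye after TCA fixation.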

Row | Structure (SMILES) | proliferation Z-score within cell line (Bt20) | proliferation Z-score within cell line (Bt549) | proliferation Z-score within cell line (HCC1143) | proliferation Z-score within cell line (HCC1806) | proliferation Z-score within cell line (HCC1937) | proliferation Z-score within cell line (HCC38) | proliferation Z-score within cell line (HCC70) | proliferation Z-score within cell line (Hs578T) | proliferation Z-score within cell line (MDA-MB-231) | proliferation Z-score within cell line (MDA-MB-435s) | proliferation Z-score within cell line (MDA-MB-436) | proliferation Z-score within cell line (MDA-MB-453) | proliferation Z-score within cell line (MDA-MB-468) | proliferation Z-score within cell line (SKBR7) | proliferation Z-score within cell line (SUM1315MO2) | proliferation Z-score within cell line (SUM149PT) | proliferation Z-score within cell line (SUM159PT) | proliferation Z-score within cell line (SUM185PE) | proliferation Z-score within cell line (SUM229PE) | proliferation Z-score within cell line (SUM52PE)
1 | CC(C)(C)Cn1c(N)nc2ccc(-c3[nH]c(C(C)(C)C)nc3-c3ccc(F)cc3)nc21 | 0.229 | 0.348 | 0.495 | -0.455 | 0.568 | 0.569 | 0.71 | 0.785 | 0.261 | 0.564 | 0.542 | 0.861 | 0.578 | 0.622 | 0.0848 | 0.381 | 0.705 | 0.554 | 0.39 | 0.333
2 | C[S+]([O-])c1ccc(-c2nc(-c3ccc(F)cc3)c(-c3ccncc3)[nH]2)cc1 (stereo not given) | 0.882 | 0.13 | -2.44 | 0.96 | -2.79 | 0.574 | -2.19 | 0.703 | 0.761 | 0.716 | -2.65 | 0.306 | 1.18 | -0.76 | 0.493 | 0.914 | 0.326 | 0.313 | 0.739 | 0.64
3 | COc1cc(Nc2ncc(F)c(Nc3ccc4c(n3)NC(=O)C(C)(C)O4)n2)cc(OC)c1OC | 0.404 | 0.645 | 0.655 | 0.451 | 0.375 | 0.435 | 0.644 | 0.303 | -0.114 | -0.0509 | 0.84 | 0.749 | 0.186 | 0.585 | -1.41 | -0.154 | 0.532 | -1.13 | 0.365 | -1.42
4 | Cc1ccc(F)c(NC(=O)Nc2ccc(-c3cccc4[nH]nc(N)c34)cc2)c1 [Linifanib (ABT-869)] | 0.255 | 0.389 | 0.319 | 0.197 | 0.599 | 0.463 | 0.304 | 0.425 | 0.718 | 0.377 | 0.521 | 0.348 | 0.596 | -0.148 | 0.57 | -0.106 | 0.189 | 0.22 | 0.245 | 0.656
5 | CCc1nc(-c2cccc(C)c2)c(-c2ccnc(NC(=O)c3ccccc3)c2)s1 | 0.104 | 0.479 | 0.294 | 0.311 | 0.24 | 0.312 | 0.154 | 0.367 | 0.413 | 0.442 | 0.366 | 0.381 | 0.188 | -0.599 | 0.307 | -0.0886 | 0.169 | 0.471 | 0.329 | 0.308
6 | CNC(=O)Nc1ccc(-c2nc(N3CC4CCC(C3)O4)c3cnn(C4CCC5(CC4)OCCO5)c3n2)cc1 | -1.67 | -2.07 | -1.97 | -1.47 | -1.92 | -2.23 | -2 | -2.11 | -1.42 | -1.57 | -1.66 | -1.55 | -1.41 | -1.83 | -1.44 | -1.28 | -1.81 | -1.6 | -1.7 | -1.22
7 | Clc1ccc(C2(c3ccc(-c4cn[nH]c4)cc3)CCNCC2)cc1 | 0.0679 | 0.0532 | -0.292 | 0.607 | 0.397 | -0.225 | -2.06 | -0.421 | 0.0151 | 0.337 | -0.372 | 0.882 | 0.128 | 0.917 | 0.375 | 0.449 | -0.919 | 0.0698 | 0.456 | 0.895
8 | Cc1nc(N)sc1-c1ccnc(Nc2ccc(N3CCOCC3)cc2)n1 | -1.52 | 0.426 | 1.43 | 0.37 | 1.01 | 0.438 | 0.951 | 0.499 | -1.27 | -0.724 | 1.3 | -0.251 | -1.83 | 0.221 | -1.13 | -0.641 | 0.563 | -0.861 | -0.391 | -0.417
9 | CCc1ccc(/C=C2/SC(=S)NC2=O)cc1 | 0.471 | 0.55 | 0.586 | 0.657 | 0.62 | 0.496 | 0.572 | 0.481 | 0.685 | 0.712 | 0.822 | 0.824 | 0.747 | 0.8 | 0.31 | 0.704 | 0.525 | 0.286 | 0.218 | 0.529
10 | Cc1nc(Nc2n[nH]c3c2CN(C(=O)N[C@H](CN(C)C)c2ccccc2)C3(C)C)c2sccc2n1 | -1.1 | -2.83 | -2.46 | -1.68 | -0.752 | -1.18 | -1.98 | -2.74 | -2.47 | -2.29 | -1.75 | -1.61 | -2.27 | -2.51 | -1.36 | -1.63 | -1.84 | -1.8 | -1.89 | -1.65
11 | COc1ccccc1-c1cc(Nc2cccc(CS(N)(=O)=O)c2)ncn1 | -0.131 | -0.858 | 0.211 | -1.41 | -0.496 | -1.8 | -0.142 | -1.17 | 0.784 | 0.487 | -0.457 | -1.56 | 0.248 | -1.34 | 0.0782 | 0.814 | 0.353 | 0.133 | 0.542 | 0.773
12 | N#Cc1c(NC(=O)c2cccc3ccccc23)sc2c1CCCC2 [JNK Inhibitor IX] | -0.697 | 0.171 | 0.376 | 0.0118 | 0.426 | 0.237 | 0.384 | 0.4 | -1.55 | -1.73 | 0.323 | 0.393 | 0.612 | -0.154 | -2.17 | -0.527 | 0.251 | 0.319 | -1.77 | -0.608
13 | Cc1cnc(NC(=O)Nc2cc(Br)c(C)cc2OC[C@@H]2CNCCO2)cn1 | 0.417 | 0.531 | -0.227 | -1.5 | 0.00418 | 0.064 | -1.11 | 0.422 | 0.937 | 0.594 | -1.07 | -0.0335 | -0.0569 | -0.3 | -0.616 | -0.121 | -0.0996 | -0.287 | -0.451 | 0.733
14 | NC1(C(=O)N[C@@H](CCO)c2ccc(Cl)cc2)CCN(c2ncnc3[nH]ccc23)CC1 | -2.32 | -1.31 | -0.0425 | 0.237 | -1.35 | -0.681 | -2.74 | -1.68 | 0.588 | 0.253 | -0.402 | -1.82 | -1.55 | -0.537 | 0.505 | -1.59 | -0.32 | -1.73 | 0.494 | -0.365
15 | OCCn1cc(-c2cnc3nnn(Cc4ccc5ncccc5c4)c3n2)cn1 | 1.12 | 0.569 | 0.753 | 0.573 | 0.559 | 0.593 | 0.731 | 0.632 | 0.846 | 1.17 | 0.998 | 0.743 | 0.756 | 0.736 | 0.772 | 0.877 | 0.5 | 0.885 | 1.06 | 1.17
16 | COC(=O)Nc1ccc(-c2nc(N3CCOCC3)c3cnn(C4CCN(C(=O)OC)CC4)c3n2)cc1 | -1.79 | -0.393 | -1.85 | 0.553 | -1.41 | 0.525 | 0.705 | -0.393 | -1.39 | -1.82 | -1.25 | -0.306 | -1.25 | -0.636 | -1.88 | -1.41 | -3.3 | -1.83 | -1.63 | -1.37
17 | O=C(Nc1cc(C(F)(F)F)cc(C(F)(F)F)c1)c1cc(Cl)ccc1O | -1.51 | -1.64 | -1.58 | -1.06 | -2.23 | -2.1 | -1.66 | -1.28 | -1.24 | -1.41 | -1.35 | -1.38 | -1.3 | -1.74 | -1.19 | -1.37 | -1.83 | -0.83 | -1.18 | -1.04
18 | CC(=O)Nc1nc(C)c(-c2ccc(Cl)c(S(=O)(=O)NCCO)c2)s1 | -0.121 | -0.0841 | 0.444 | -0.13 | 0.567 | 0.394 | 0.306 | -0.228 | 0.524 | 0.0643 | 0.204 | -0.977 | 0.401 | -0.0154 | 0.0559 | 0.352 | 0.753 | -0.75 | 0.0373 | 0.386
19 | CN1CCN(c2ccc(OC(F)(F)F)c(Nc3ncc4c(n3)-c3c(c(C(N)=O)nn3CCO)CC4)c2)CC1 | -2.79 | -2.16 | -2.35 | -1.48 | -1.47 | -2.26 | -2.49 | -1.94 | -2.8 | -2.37 | -2.06 | -1.72 | -2.54 | -2.59 | -2.32 | -3.08 | -3.33 | -0.773 | -1.86 | -1.59
20 | COc1cc2ncnc(Nc3ccc(Cl)cc3F)c2cc1OC | -0.323 | 0.409 | -0.6 | -1.74 | -0.291 | -0.0102 | 0.279 | 0.224 | 0.326 | 0.37 | -0.0234 | 0.495 | -0.751 | -0.18 | -0.24 | -0.843 | 0.192 | 0.0345 | -0.541 | -0.28
21 | CCS(=O)(=O)c1cccc(-c2cc(C(=O)NC3CCN(C)CC3)c(C)c3[nH]c4ncc(C)cc4c23)c1 | -0.628 | -0.513 | -0.192 | -0.709 | 0.0955 | -1 | -1.16 | -0.164 | -1.25 | -0.448 | -0.51 | -0.248 | -1.35 | -0.739 | -1.38 | -0.971 | 0.7 | -1.38 | -0.691 | -1.24
22 | Clc1ccc(Nc2nnc(Cc3ccncc3)c3ccccc23)cc1 [Vatalanib (PTK787) 2HCl] | 0.42 | 0.809 | 1.07 | 0.981 | 0.881 | 0.55 | 0.971 | 0.523 | 0.841 | 0.922 | 0.844 | 0.875 | 0.673 | 1.11 | 0.262 | 0.786 | 0.626 | 0.0392 | 0.514 | 0.381
23 | O=C(NCc1cccc(O)c1)Nc1nc(-c2ccncc2)cs1 | -0.187 | 0.0878 | 0.195 | 0.29 | 0.265 | 0.105 | 0.0844 | 0.382 | -0.493 | 0.0627 | 0.52 | 0.429 | 0.181 | 0.424 | -0.409 | 0.284 | -0.0124 | -0.0874 | -0.0123 | 0.224
24 | Nc1nc(N)c2nc(-c3cccc(O)c3)cnc2n1 | 0.593 | 0.193 | 0.494 | -0.071 | 0.399 | 0.0456 | 0.561 | 0.5 | -0.191 | 0.0221 | 0.504 | -1.4 | 0.407 | 0.37 | -0.144 | 0.709 | 0.389 | 0.309 | 0.482 | 0.716
25 | O=C(NC1CCNCC1)c1n[nH]cc1NC(=O)c1c(Cl)cccc1Cl | -2.62 | -2.82 | 0.889 | -2.15 | 1.04 | -2.76 | 0.811 | -2.96 | -2.07 | -2.02 | 0.637 | -1.96 | -1.85 | -2.53 | -2.34 | -2.32 | 0.494 | -1.52 | -2.41 | -1.04

— the supplement of paper PMC6746778
